# The campaign covered roughly 420,000 compounds. About 64,000 (15%) were called active. The inconclusive results got no clear call from the source; some entries with a clear call stand among them for comparison. Calls follow the shape of the dose curve; as a rule, active = well fitted inhibition curve with a large enough effect; inconclusive = small, poorly fitted or top-dose-only effect; inactive = flat fitted curve, though single readings scatter. No potency is given beside an inconclusive call; the fits are too rough.
# Assay: qHTS for Inhibitors of human tyrosyl-DNA phosphodiesterase 1 (TDP1): qHTS in cells in absence of CPT; also: nearly all actives have a fitted effect of over 55% in size
# Details: DT40 Tdp1-/- hTDP1 cells, no CPT, ATP luminescence, 48 h; activity change, negative = growth inhibition: at 46.2 µM (top of the series) unless noted
# Procedure, shortened: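 Camptothecin absent (DMSO only). Human TDP1-complemented DT40 knockout cells, 400 cells/well, 37 °C for minimum 48 hr; ATP measured via CellTiter-Glo, 30 min dark incubation, luminescence.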
# % is scaled to controls: 0 for no effect and ±100 for the full control effect; potency is read from the fitted curve at half-maximal effect; tags tell the direction and shape of the fitted curve.
Compound,Potency,"activity change, negative = growth inhibition"
CC1(C)CN(Cc2ccccc2)C(=O)[C@H]1CC(=O)Nc1ccccc1,"inconclusive [inhibitor, single point]",
CCC(C)C1=CC(=Nc2c(C)n(C)n(-c3ccccc3)c2=O)C=C(C(C)CC)C1=O (stereo not drawn),"inconclusive [inhibitor, single point]",
CC1CCc2c(sc(NC(=O)c3cc4nc(-c5ccc(Cl)cc5)cc(C(F)(F)F)n4n3)c2C#N)C1 (stereo not drawn),,inactive: -28.5%
Cc1ccc(C(=O)c2ccc(N3CCOCC3)c(F)c2)cc1,"inconclusive [inhibitor, single point]",
CNC(=O)c1cccc(NC(=O)c2ccccc2OCc2ccccc2)c1,"inconclusive [inhibitor, partial curve]",
CCc1cccc(NC(=O)CN(C)S(=O)(=O)c2cccc3cccnc23)c1,active: 16.4 µM,
CCN(Cc1ccccc1)S(=O)(=O)c1ccc(C(=O)N2CCN(c3nc4ccccc4s3)CC2)cc1,active: 9.2 µM,
COc1cccc(NC(=O)CCc2nnc3ccc(N4CCN(c5cccc(OC)c5)CC4)nn23)c1,"inconclusive [inhibitor, single point]",
CCOc1ccc(NC2OC(CO)C(O)C(O)C2O)c([N+](=O)[O-])c1 (stereo not drawn),,inactive: -2.94%
CCc1ccc(/C=N\NC(=O)c2ccc(Br)o2)s1,active: 23.1 µM,
CCC1CCCCN1C(=O)c1sc(-n2nc(C)c(Cc3ccccc3)c2C)nc1C (stereo not drawn),"inconclusive [inhibitor, partial curve]",
CC(C)(C)OC(=O)N1CCN(C(=O)Nc2ccc3c(c2)OCCO3)CC1,,inactive: -19.1%
O=C(CNC(=O)c1ccccc1)OC(C(=O)O)c1ccc(F)cc1 (stereo not drawn),"inconclusive [inhibitor, single point]",
CC1CCN(C2=C(NS(=O)(=O)c3ccccc3)C(=O)c3ccccc3C2=O)CC1,"inconclusive [inhibitor, single point]",
Nc1nonc1-n1nnc(C(=O)c2ccccc2)c1-c1ccccc1,"inconclusive [inhibitor, partial curve]",
Cc1ccc2cc(CN(Cc3ccco3)S(=O)(=O)c3c(C)ccc4nsnc34)c(=O)[nH]c2c1,"inconclusive [inhibitor, single point]",
O=S(=O)(c1ccc(OCc2nc3ccccc3s2)c(Cl)c1)N1CCOCC1,"inconclusive [inhibitor, single point]",
Cc1cccc2sc(NC(=O)C3c4ccccc4Oc4ccccc43)nc12,"inconclusive [inhibitor, single point]",
Cc1cc(C)cc(C(=O)N(NC(=O)Nc2ccc(Cl)cc2)C(C)(C)C)c1,"inconclusive [inhibitor, partial curve, poor fit]",
CSc1ccccc1C(=O)NC1CCCCCC1,"inconclusive [inhibitor, partial curve, poor fit]",
COc1ccccc1NC(=O)CSc1sc2c(O)cc(=O)[nH]c2c1C#N,,inactive: -9.24%
O=C(N/N=C/c1sc(=O)n(-c2ccccc2)c1Cl)c1ccccc1,"inconclusive [inhibitor, partial curve, poor fit]",

Compound,Potency,"activity change, negative = growth inhibition"
COc1ccc(-c2ccc(OC)cc2)cc1,,inactive: 0.857%
CN(C)CCCNC(=O)C[C@H]1C[C@H](C(=O)N2CCCCC2)[C@@]2(CCc3ccccc3)c3[nH]c4cc(-c5ccco5)ccc4c3CCN2C1=O,"inconclusive [inhibitor, single point]",
CN(CCCC1CCCC1)C(=O)CC1C(=O)NCCN1Cc1ccc(F)cc1 (stereo not drawn),"inconclusive [inhibitor, partial curve, poor fit]",
CN(C(=O)c1ccc2c(=O)n3c(nc2c1)CCCCC3)c1ccccc1F,,inactive: 6.08%
C=CCNC(=S)NNC(=O)c1cccc(Br)c1,"inconclusive [inhibitor, single point]",
Cc1cccc([C@@H]2[C@@H]3C(=O)N(Cc4ccccc4)C(=O)[C@@H]3[C@]3(CC(C)C)C(=O)N(c4cccc(F)c4)C(=O)N23)c1,"inconclusive [inhibitor, partial curve, poor fit]",
CCOC(=O)c1c(S(=O)(=O)NCC(=O)NCc2ccccc2)c(C)n(C)c1C,"inconclusive [inhibitor, partial curve]",
O=C(COC(=O)c1cccc(C(=O)OCC(=O)c2ccc(Br)cc2)n1)c1ccc(Br)cc1,"inconclusive [inhibitor, single point]",
O=C1Nc2ccc(Cl)cc2[C@@](C#CC2CC2)(C(F)(F)F)O1,active: 16.8 µM,
O=C(Nc1cccnc1)C12CC3CC(CC(C3)C1)C2,,inactive: -5.82%
C=CCSc1nc2c(c(=O)[nH]c(=O)n2C)n1C/C=C(/C)Cl,"inconclusive [inhibitor, partial curve, poor fit]",
CN(C)c1ccc(/C=C(/NC(=O)c2ccccc2)C(=O)N2CCCC2)cc1,,inactive: -22.5%
Cc1cc(-c2nnc(SCC(=O)Nc3ccc(F)cc3F)n2N)n[nH]1,,inactive: 28.1%
O=C(c1cccc(F)c1)N1CCC2(CCCN(Cc3cc(C(F)(F)F)cc(C(F)(F)F)c3)C2)CC1,"inconclusive [inhibitor, single point]",
O=C(NC[C@@H]1CCCN2CCCC[C@H]12)c1cnn(-c2nccc(-c3ccco3)n2)c1C1CC1,,inactive: -3.64%
CN(C)S(=O)(=O)c1ccc2nc(NC(=O)c3cccs3)sc2c1,"inconclusive [inhibitor, partial curve]",
Cc1cc2c(cc(C(=O)OC(C)C(=O)NCc3ccc(F)cc3)n2C)o1 (stereo not drawn),,inactive: -19.1%
COC(=O)[C@]12CCCCC=C1N(CCc1ccc(OC)c(OC)c1)C(=O)[C@H](CC(=O)NCc1ccc(OC)c(OC)c1)C2,active: 16.4 µM,
COc1ccc(Br)cc1CNc1ccccc1,,inconclusive: -36.4% [inhibitor]
CNC(=O)CN(c1ccc(F)cc1)S(=O)(=O)c1cc(C)ccc1OC,,inactive: -32%
Cc1cc(NC(=O)CN2CCC(O)(c3cccc(F)c3)CC2)no1,,inactive: 3.03%
